The list shows a part of the results.
test system: PfHDP1 homeodomain (GST-tagged); test: gcPBM binding intensity (ln(normalized median fluorescence intensity)); higher = stronger DNA binding
Summary of the method: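 GST-tagged P. falciparum DNA-binding domains, expressed in E. coli (about 25 μg on average), were applied for 1 h to an Agilent 4 × 180k array of primer-extended double-stranded 36-bp intergenic genomic probes plus negative controls. The binding buffer was 1× PBS with 1% milk, 0.2 mg/ml BSA, 0.5% salmon testes DNA and 0.03% Triton X-100. Bound protein was detected with Alexa488 anti-GST antibody and scanned at 488 nm. Binding intensity is the highest Masliner-normalised natural-log median intensity across replicate spots of either probe orientation.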

Row | Sequence | gcPBM binding intensity (ln)
1 | TTATATATTAAGAAATGTACGAAAAAAAAAATTATA [XGTACX_site3893] | 6.4
2 | GAAATAAAAGATGGTTGTACACCGTTTTCTCATATA [XGTACX_site5368] | 6.33
3 | TACATATATGATAAAAGTACATATAAATATACATAA [XGTACX_site3804] | 6.18
4 | TATATGAATAAACATTGTACGTAAATATTAACTATC [XGTACX_site543] | 6.71
5 | ACATTTTAAATACGATGTACTTGAGTTTTTTTTAAA [XGTACX_site5833] | 6.3
6 | AATTATTTATTGAGAGTGCAACAAATTATTTCAAAT [GTGCAC_site9461] | 7.66
7 | TTTTTTTGCATGAGCAATAAAAAAGGCTTGTTCAAA [CACACA_negctrl_site1615] | 7.43
8 | CACCCACCCAGACACACACACACACCCCCACCCATA [CACACA_site367] | 6.88
9 | AAAAAAATAATGTATATATAAATTTATTTACATATG [GTGCAC_negctrl_site107] | 6.07
10 | TATATATTTAGTTAGTGTACAAGTTATTTAGTAGTT [XGTACX_site5133] | 6.76
11 | CATATTTTCTTGTGTACACATTTATTTTATACTATA [CACACA_site6032] | 8.85
12 | CAAATAAATTAAAGGTGTACTTTTATAGTTACGACA [XGTACX_site3926] | 6.01
13 | TAAAAAATAAGATATACACACATATATTTATTTATA [CACACA_site7158] | 6.28
14 | TAAAAAATTTTCGCGTGTACGCAAGAAAAAAAAAAT [XGTACX_site3058] | 6.35
15 | TTTTTGCCATATTACACACACACATGGAAACCCCCT [CACACA_site4994] | 7.58
16 | AAAGAGAACATAAGTACACACATGTTCTTTTAGTAA [CACACA_site2824] | 6.01
17 | ATAAATATGTATTGCTGTACATATATATAAATTATC [XGTACX_site8411] | 6.37
18 | AATAGGAAAACCTATACACACTTTAAAAAAAATATA [CACACA_site4977] | 6.14
19 | AAAAAAAAAAAAAAAACACACAAAAGCAAGAAAAAC [CACACA_site3198] | 6.61
20 | AAAGTAAAAACACATACATGCATATACACATATAAC [TGCATGCA_site341] | 7.18
21 | AAATATTTAAATATTATGTATGATTATATATATATA [CACACA_negctrl_site590] | 8.88
22 | AAATAAATAAATAAATGTACACATATATATATATAT [XGTACX_site7787] | 9.45

Row | Sequence | gcPBM binding intensity (ln)
23 | TTTCTTATTTTTTTCACACACTAAACATTTCAAATG [CACACA_site5259] | 7.01
24 | TCAATAAGATTATAAAGTACTTTTGAAGATATTATA [XGTACX_site7489] | 6.13
25 | CTTAATATATGTGGCACACATGTGGAGTCCTATTAA [CACACA_site4281] | 6.7
26 | AAAAAAATATTAATGTGTACATAATAATAACATATA [XGTACX_site8319] | 6.55
27 | TATAAAATTCTGACTTGTACATGTGAAAAATAATTA [XGTACX_site1396] | 6.48
28 | AAAGATGGAAAAAAAAATTTGTGTGTTGAAAGATAT [GTGCAC_negctrl_site19] | 6.82
29 | GCGTTGTTTTTAAAAAGTACATTTTTATATAAGTTA [XGTACX_site8780] | 6.37
30 | AAAATACAATTTCTAGCACACAAAATATTATTATAA [CACACA_site9056] | 6.29
31 | TATATATATATATAATGTACACATTTTTATAACTAT [XGTACX_site5714] | 9.14
32 | ATAATAAAAATATACTGTACATTTGTAAATTCTTTT [XGTACX_site4655] | 6.11
33 | TAAAACATATAAAGGTGTACGCCTTTTTGTATCAAT [XGTACX_site6064] | 6.2
34 | TTATAGAGCTTATTCACACATACATATGTATTTATA [CACACA_site5775] | 6.87
35 | GTCTACTACACTAAATGTACAAGAAAAAAGAAAAAA [XGTACX_site4660] | 6.31
36 | TATATTTGTTGACACACACACAAAAAAAAAAAAAAA [CACACA_site7211] | 6.32
37 | AAGAGTAAAATATGGTTGCACTAAAAATATATATTT [GTGCAC_site9484] | 8.8
38 | TATTTATATATTTATGCATGTTATAGGCAAAAATGT [TGCATGCA_site397] | 6.27
39 | TATATTGATGATGATAGTACGTATGAATACAAAAAA [XGTACX_site4] | 6.47
40 | GTAGATATTTATTGAGTGCATGTTATAAAGGGAAAA [GTGCAC_site9481] | 7.83
41 | TTTTTTTTATGGAAACGTACATACATACATTAAAGA [XGTACX_site7401] | 6.36
42 | TTTTTATTTTTTTACAGTACATAAAATAAATAAATA [XGTACX_site6596] | 6.27
43 | TTGGTGATATTTTTCTCACACATTTACCAGAGATGT [CACACA_site4684] | 6.39
44 | TTTGTTTTTTTGAGAGTGCAATATATATAAAAAGGG [GTGCAC_site9691] | 9.35

Row | Sequence | gcPBM binding intensity (ln)
45 | CATAATAAGTATAACGTTAGTTACAAACAGCTTGTT [CACACA_negctrl_site937] | 6.54
46 | TTTTTAAATAAATGTTTTTATTATATACATATCAAT [TGCATGCA_negctrl_site423] | 6.22
47 | AAAATAATGTATATAGTGCAAATGAAAACGAAAAAA [GTGCAC_site9455] | 9.04
48 | TAAAAATATAAAAAGTGTACAATATATAAATTAATA [XGTACX_site1606] | 6.71
49 | ATATTAAAAAAATATGCATGCAAATATTATTTTGTA [TGCATGCA_site191] | 6.42
50 | TATTTAATTAATATAATATTAAACGGAAAAGATAAA [TGCATGCA_negctrl_site148] | 6.93
51 | TTTTTCTTTTTTTTTTTAATAATATATAACAAATTT [CACACA_negctrl_site1724] | 6.24
52 | AATCAAATTTTCAAGTCGCACCAAACAAAAAAATGA [CACACA_negctrl_site1397] | 6.84
53 | ATGTTATATTTTTTTATACACACTGGGATATATAAA [CACACA_site6244] | 6.93
54 | TTCATTGTGTTAACGGTGCATATATTTTTTCACCGT [GTGCAC_site9464] | 9.4
55 | ATAAACAAAAAAAAAAAATATATCAATATATATATA [CACACA_negctrl_site299] | 8.7
56 | AAAATATATAATTTTTAACACACAAAAAAAAAAAAA [CACACA_site9192] | 6.31
57 | AGTCATAAATTTATTTGTACATATAATATATATATA [XGTACX_site8489] | 8.35
58 | GTCCTTACTAATTAATTTTAGGCCATATAGTTTGTC [XGTACX_negctrl_site199] | 6.63
59 | ATATTACAAATATAATGTACAAAATATAAATATGCA [XGTACX_site8106] | 6.34
60 | GTTATACACATATATACACACATATGTAAATATATA [CACACA_site9080] | 7.66
61 | CTAATATATGTATGCACACACAATATATACATATTT [CACACA_site3360] | 9.57
62 | CATTAATTTAATAAATGTACATAAAATATATATTAT [XGTACX_site8085] | 7.49
63 | TAAAATTTACAACACTGTACTTGAATTTATCTTTAA [XGTACX_site241] | 6.02
64 | GCAGTATGCGATCAGTGTACGAGTTATTTTATAAAA [XGTACX_site4764] | 6.36
65 | TTATAATCTATACATATATATGTATGTATGTCTCAA [CACACA_negctrl_site1702] | 6.49
66 | AAATGCGTATATAACGCATGTATAAGAACATTTTTT [TGCATGCA_site225] | 6.28

Row | Sequence | gcPBM binding intensity (ln)
67 | ACATCATTTTTATGTACACACACATATACGTTGAAT [CACACA_site5095] | 7.08
68 | GAAGTATTATTAAAGCTGCACTTTTCTAAAATAAAC [GTGCAC_site9429] | 6.69
69 | TGTTATATATAAATTTGTACACATAAATATTTTTAC [XGTACX_site5873] | 6.76
70 | AATAAAAAAAAATGCACACATATATATATATATATA [CACACA_site2421] | 9.87
71 | TTTTTATTTATATGTATACACACTTTAATTAAAAGT [CACACA_site2525] | 7.09
72 | CAGAATATATTCTATACATGCAATAGGAAATGTAGC [TGCATGCA_site110] | 6.98
73 | AAAAAAAAAAAAAAAAGTACAAAAATATATATGCAT [XGTACX_site8392] | 6.48
74 | TATGCACAGAAACACACACACACAACCAAAAAATAA [CACACA_site5425] | 8.96
75 | CTATAATGTTTCTTTCAACACACAAAAAATGAACAC [CACACA_site8438] | 7.14
76 | CATACGTTCTAATATATACACACCTGGTATTAATTA [CACACA_site2221] | 6.7
77 | AATATATAATTTTTAACACACAAAAAAAAAAAAAAT [CACACA_site3581] | 6.34
78 | AAAAAAAAAAAAAAAACACACACATATAATATATTT [CACACA_site8369] | 6.77
79 | TCATTCTAAATATAAACACACATAAATATATACATT [CACACA_site3354] | 6.69
80 | ATTGCGTGATAATAATGTACAAAAAGTAATTTATAT [XGTACX_site8339] | 6.24
81 | GGTACGTATTTCAATGCATGTCCATGTACATATAAA [TGCATGCA_site208] | 7.08
82 | ACATACATACATACATACATACATACATACATACAT [XGTACX_negctrl_site315] | 7.62
83 | TATAATATATCTGTAACACACAAAAGTTATATACTT [CACACA_site5578] | 6.44
84 | TTTTTTTCTCTCTCTACACACAAGGTTTAATTTAAA [CACACA_site1690] | 6.81
85 | AACTCACGAGGACACACACACATATATATATATATA [CACACA_site4711] | 9.36
86 | TCATAGGGGTAGAAGGTGCAATAAAAAAGAAGAAAA | 9.84
87 | ATAAATATGTTCTGCACACAAATAAGTGTTTGAAGT [CACACA_site3892] | 8.63
88 | GAATTTCAACAAAGTAGTACATTTTATAGTAATTGG [XGTACX_site2319] | 6.11

Reference: the supplement of paper PMC11417369
